Over roughly 33,000 sequences, “E-score (-0.5 to 0.5)” has its median near -0.017; the highest 2% begin near 0.3. Some of the results follow.
Biological target: T1, Sut1 (UniProt P53032)
T1 sequence: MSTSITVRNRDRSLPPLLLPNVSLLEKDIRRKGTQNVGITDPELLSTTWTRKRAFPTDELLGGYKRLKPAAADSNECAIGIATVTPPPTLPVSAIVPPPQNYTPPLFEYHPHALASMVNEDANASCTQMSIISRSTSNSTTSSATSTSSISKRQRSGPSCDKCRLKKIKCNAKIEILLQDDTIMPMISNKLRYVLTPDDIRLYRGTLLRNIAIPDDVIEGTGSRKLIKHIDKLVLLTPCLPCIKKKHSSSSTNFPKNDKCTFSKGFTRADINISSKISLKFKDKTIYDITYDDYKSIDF
Assay: PBM E-score (8-mer binding enrichment) (E-score (-0.5 to 0.5)); higher = stronger / more preferred TF binding; most listed sequences are background and not binding sites
Conditions: protein concentration: 200 nM; construct: GST-full length
How it was run: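 For each ungapped eight-base word taken together with its reverse complement, the Universal PBM Analysis Suite assigned an E-score. Binding data came from GST-tagged yeast transcription factors, applied at about 100-200 nM, on universal all-10-mer Agilent arrays made double-stranded by primer extension. Fluorescent anti-GST marked bound protein, and scans were normalised with masliner.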

Sequence	PBM E-score
CAGTAGAG	-0.159
ATTATCTC	0.177
AAAAGACG	0.0362
ACGTCTGC	-0.29
ACAAGTTA	0.152
GGTGCAAC	-0.131
GAGTCGGA	0.324
ACGCCGAG	-0.0243
AGCTCGCG	0.124
CACGACCG	-0.276
AGGACGCG	-0.0934
ACAGCAGT	-0.0771
AGAGGGAC	-0.0886
CGTGGGTC	-0.162
AAACTCAA	0.242
CGAAGCGA	-0.0258
ATGTTTCC	0.0702
CCCGCCAA	-0.143
AGCCCAAA	0.00417
GGCGCAAA	0.0173
GCCAGAGC	-0.206
CGGGCGGC	-0.0978

Sequence	PBM E-score
CAATCTCC	0.312
AACCCGAC	-0.0177
AAGTGACT	-0.0409
CCTGGTGA	-0.172
GAGTATAA	0.282
TCCCTAAA	0.148
ACGAATTA	0.0458
AGACGGAA	0.0433
AAAGTGAA	0.191
ACTCCACA	0.0516
CTACTCAC	0.0493
ATTCGGGC	-0.0696
AACGGTTG	0.0727
ATCGAACA	0.00237
CTAACTCA	0.034
CTAGATTC	-0.059
GCGTTCGA	-0.0289
ACATTTTA	0.238
CGGATGGC	-0.0619
ACCTGAAT	0.0949
CCCAATGC	-0.194
CCCTGGTC	-0.326

Sequence	PBM E-score
GTAATTTA	0.221
GCGCGGAC	0.218
CGTTTTAA	0.124
ACCAAAGG	-0.0819
CCGTGCAA	0.178
AGAGTAAG	0.016
GGATGACC	-0.219
AACACTAT	0.266
AGTGTCAC	-0.0708
CTGTCGTC	-0.0675
CTGCTGAA	0.0148
AGGGGTCG	-0.334
GACCAGCC	-0.0653
TACAACTA	0.118
AGCAGCAC	-0.104
ATGAAACA	0.0677
ACTACTCT	-0.0164
GACCGAGC	-0.206
ACTGGACA	-0.153
ACGTGACA	-0.102
AGAAACCT	0.149
GTCCGTCA	0.253

Sequence	PBM E-score
AGCGTCTA	-0.177
ACACCGAA	0.122
CAGCGTTC	-0.109
GCATGGAA	-0.153
AATGTATA	0.298
GACCGACA	-0.0292
GCAATAAC	0.0512
GCTTTATA	-0.0119
AATCGTAC	0.135
AATAGGAC	0.0787
ATAGTATA	0.174
AAAATGGA	0.183
CTTCAAAA	0.188
CAGTCAGC	0.0209
CATGTACG	-0.00936
GAATCGAA	0.131
ACTCAATA	0.25
GAGGACGA	0.0235
ACACCTCG	-0.103
CTCCCTGC	-0.276
ATTGCACG	-0.0293
AATTAGTA	0.272

Sequence	PBM E-score
AGTCTCTA	-0.121
CGAAGAAC	0.115
CTCAGTTA	-0.0295
CCGGTAGC	-0.205
CTCTCTCC	-0.086
CGGTCGAG	-0.311
GTGCGAGA	-0.142
TGATGAAA	0.149
GCAGGAAA	-0.129
TCATTGGA	-0.0841
CTCATTAA	0.119
CCCTATGA	-0.118
CCATTGCG	-0.257
ATAAGCAA	0.0892
TGAGTACA	0.0972
TGAGACAA	0.0653
AAGGCACT	-0.237
GAACCATA	0.0953
CCTTGAAA	0.0379
ATGCGGTG	-0.305
GAGCAACC	0.0801
GGCTGTGA	-0.208
